# Source: the supplement of paper PMC8728848
# Some of the results follow.
# B1: MGL (Homo sapiens), Q8IUN9 (protein)
# chain: MTRTYENFQYLENKVKVQGFKNGPLPLQSLLQRLCSGPCHLLLSLGLGLLLLVIICVVGFQNSKFQRDLVTLRTDFSNFTSNTVAEIQALTSQGSSLEETIASLKAEVEGFKQERQAGVSELQEHTTQKAHLGHCPHCPSVCVPVHSEMLLRVQQLVQDLKKLTCQVATLNNNASTEGTCCPVNWVEHQDSCYWFSHSGMSWAEAEKYCQLKNAHLVVINSREEQNFVQKYLGSAYTWMGLSDPEGAWKWVDGTDYATGFQNWKPGQPDDWQGHGLGGGEDCAHFHPDGRWNDDVCQRPYHWVCEAGLGQTSQESH
# Tests used:
# Test in all cases: glycan array binding signal (z-score within array); higher = stronger binding
# Conditions in all cases: glycan notation: IUPAC condensed, linker removed
# [1] = molecular target: Gal(b1-3)GlcNAc(b1-2)Man(a1-3)[Gal(b1-3)GlcNAc(b1-2)Man(a1-6)]Man(b1-4)GlcNAc(b1-4)GlcNAc
# Procedure, shortened: (§1)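 Glycan array data were curated from 3228 arrays in the Consortium for Functional Glycomics database and kept only where the protein sequence was available. Glycan names were converted to IUPAC-condensed notation, and columns mapping to the same glycan were averaged. The binding signal is a within-array Z-score, averaged across arrays of the same protein sequence at different concentrations or buffers and across linkers. Negative Z-scores can be read as non-binding.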
# [2] = molecular target: Gal(b1-3)GlcNAc(b1-2)Man(a1-3)[Gal(b1-3)GlcNAc(b1-2)Man(a1-6)]Man(b1-4)GlcNAc(b1-4)[Fuc(a1-6)]GlcNAc
# Procedure, shortened: as §1
# [3] = molecular target: Gal(b1-3)GlcNAc(b1-2)Man(a1-3)[GlcNAc(b1-4)][Gal(b1-3)GlcNAc(b1-2)Man(a1-6)]Man(b1-4)GlcNAc(b1-4)GlcNAc
# Procedure, shortened: as §1
# [4] = molecular target: Gal(b1-3)GlcNAc(b1-2)[Gal(b1-3)GlcNAc(b1-6)]Man(a1-6)[Gal(b1-3)GlcNAc(b1-2)Man(a1-3)]Man(b1-4)GlcNAc(b1-4)GlcNAc
# Procedure, shortened: as §1
# [5] = molecular target: Gal(b1-3)GlcNAc(b1-3)Gal(b1-3)GlcNAc
# Procedure, shortened: as §1
# [6] = molecular target: Gal(b1-3)GlcNAc(b1-3)Gal(b1-4)Glc
# Procedure, shortened: as §1
# [7] = molecular target: Gal(b1-3)GlcNAc(b1-3)Gal(b1-4)GlcNAc
# Procedure, shortened: as §1
# [8] = molecular target: Gal(b1-3)GlcNAc(b1-3)Gal(b1-4)GlcNAc(b1-2)Man(a1-3)[Gal(b1-3)GlcNAc(b1-3)Gal(b1-4)GlcNAc(b1-2)Man(a1-6)]Man(b1-4)GlcNAc(b1-4)GlcNAc
# Procedure, shortened: as §1
# [9] = molecular target: Gal(b1-3)GlcNAc(b1-3)Gal(b1-4)GlcNAc(b1-2)[Gal(b1-3)GlcNAc(b1-3)Gal(b1-4)GlcNAc(b1-6)]Man(a1-6)[Gal(b1-3)GlcNAc(b1-3)Gal(b1-4)GlcNAc(b1-2)Man(a1-3)]Man(b1-4)GlcNAc(b1-4)[Fuc(a1-6)]GlcNAc
# Procedure, shortened: as §1
# [10] = molecular target: Gal(b1-3)GlcNAc(b1-3)Gal(b1-4)GlcNAc(b1-3)Gal(b1-4)GlcNAc(b1-2)[Gal(b1-3)GlcNAc(b1-3)Gal(b1-4)GlcNAc(b1-3)Gal(b1-4)GlcNAc(b1-6)]Man(a1-6)[Gal(b1-3)GlcNAc(b1-3)Gal(b1-4)GlcNAc(b1-3)Gal(b1-4)GlcNAc(b1-2)Man(a1-3)]Man(b1-4)GlcNAc(b1-4)[Fuc(a1-6)]GlcNAc
# Procedure, shortened: as §1
# [11] = molecular target: Gal(b1-3)GlcNAc(b1-3)Gal(b1-4)GlcNAc(b1-6)[Gal(b1-3)GlcNAc(b1-3)]Gal(b1-4)Glc
# Procedure, shortened: as §1
# [12] = molecular target: Gal(b1-3)GlcNAc(b1-3)Gal(b1-4)[Fuc(a1-3)]GlcNAc
# Procedure, shortened: as §1
# [13] = molecular target: Gal(b1-3)GlcNAc(b1-3)Gal(b1-4)[Fuc(a1-3)]GlcNAc(b1-6)[Gal(b1-3)GlcNAc(b1-3)]Gal(b1-4)Glc
# Procedure, shortened: as §1
# [14] = molecular target: Gal(b1-3)GlcNAc(b1-3)GalNAc
# Procedure, shortened: as §1
# [15] = molecular target: Gal(b1-3)GlcNAc(b1-6)Gal(b1-4)GlcNAc
# Procedure, shortened: as §1
# [16] = molecular target: Gal(b1-3)GlcNAc(b1-6)GalNAc
# Procedure, shortened: as §1
# [17] = molecular target: Gal(b1-3)GlcNAc(b1-6)[Gal(b1-3)]GalNAc
# Procedure, shortened: as §1
# Gal(b1-3)GlcNAc6S = molecular target: Gal(b1-3)GlcNAc6S
# Procedure, shortened: as §1
# [18] = molecular target: Gal(b1-3)[Fuc(a1-4)]GlcNAc
# Procedure, shortened: as §1
# [19] = molecular target: Gal(b1-3)[Fuc(a1-4)]GlcNAc(b1-2)Man
# Procedure, shortened: as §1
# [20] = molecular target: Gal(b1-3)[Fuc(a1-4)]GlcNAc(b1-2)Man(a1-3)[Gal(b1-3)[Fuc(a1-4)]GlcNAc(b1-2)Man(a1-6)]Man(b1-4)GlcNAc(b1-4)[Fuc(a1-6)]GlcNAc
# Procedure, shortened: as §1
# [21] = molecular target: Gal(b1-3)[Fuc(a1-4)]GlcNAc(b1-3)Gal(b1-3)[Fuc(a1-4)]GlcNAc
# Procedure, shortened: as §1
# [22] = molecular target: Gal(b1-3)[Fuc(a1-4)]GlcNAc(b1-3)Gal(b1-4)[Fuc(a1-3)]GlcNAc
# Procedure, shortened: as §1
# [23] = molecular target: Gal(b1-3)[Fuc(a1-4)]GlcNAc(b1-6)GalNAc
# Procedure, shortened: as §1
# [24] = molecular target: Gal(b1-3)[GlcNAc(b1-6)]GalNAc
# Procedure, shortened: as §1
# [25] = molecular target: Gal(b1-3)[Neu5Ac(a2-6)]GalNAc
# Procedure, shortened: as §1
# [26] = molecular target: Gal(b1-3)[Neu5Ac(a2-6)]GlcNAc(b1-4)Gal(b1-4)Glc
# Procedure, shortened: as §1
# [27] = molecular target: Gal(b1-3)[Neu5Ac(b2-6)]GalNAc
# Procedure, shortened: as §1
# Gal(b1-4)Gal = molecular target: Gal(b1-4)Gal
# Procedure, shortened: as §1
# [28] = molecular target: Gal(b1-4)GalNAc(a1-3)[Fuc(a1-2)]Gal(b1-4)GlcNAc
# Procedure, shortened: as §1
# [29] = molecular target: Gal(b1-4)GalNAc(b1-3)[Fuc(a1-2)]Gal(b1-4)GlcNAc
# Procedure, shortened: as §1
# Gal(b1-4)Glc = molecular target: Gal(b1-4)Glc
# Procedure, shortened: as §1
# Gal(b1-4)Glc6S = molecular target: Gal(b1-4)Glc6S
# Procedure, shortened: as §1
# Gal(b1-4)GlcNAc = molecular target: Gal(b1-4)GlcNAc
# Procedure, shortened: as §1
# [30] = molecular target: Gal(b1-4)GlcNAc(a1-6)Gal(b1-4)GlcNAc
# Procedure, shortened: as §1
# Gal(b1-4)GlcNAc(b1-2)Man = molecular target: Gal(b1-4)GlcNAc(b1-2)Man
# Procedure, shortened: as §1
# [31] = molecular target: Gal(b1-4)GlcNAc(b1-2)Man(a1-3)Man(b1-4)GlcNAc(b1-4)GlcNAc
# Procedure, shortened: as §1
binder,measurement,setting,value
B1,glycan array binding signal (z-score),[1],-0.229
same,glycan array binding signal (z-score),[2],-0.246
same,glycan array binding signal (z-score),[3],-0.245
same,glycan array binding signal (z-score),[4],-0.266
same,glycan array binding signal (z-score),[5],-0.248
same,glycan array binding signal (z-score),[6],-0.247
same,glycan array binding signal (z-score),[7],-0.268
same,glycan array binding signal (z-score),[8],-0.236
same,glycan array binding signal (z-score),[9],-0.049
same,glycan array binding signal (z-score),[10],-0.152
same,glycan array binding signal (z-score),[11],-0.24
same,glycan array binding signal (z-score),[12],-0.246
same,glycan array binding signal (z-score),[13],-0.25
same,glycan array binding signal (z-score),[14],-0.25
same,glycan array binding signal (z-score),[15],-0.241
same,glycan array binding signal (z-score),[16],3.24
same,glycan array binding signal (z-score),[17],-0.205
same,glycan array binding signal (z-score),Gal(b1-3)GlcNAc6S,-0.249
same,glycan array binding signal (z-score),[18],-0.242
same,glycan array binding signal (z-score),[19],-0.218
same,glycan array binding signal (z-score),[20],-0.213
same,glycan array binding signal (z-score),[21],-0.241
same,glycan array binding signal (z-score),[22],-0.248
same,glycan array binding signal (z-score),[23],1.1
same,glycan array binding signal (z-score),[24],-0.229
same,glycan array binding signal (z-score),[25],-0.238
same,glycan array binding signal (z-score),[26],-0.259
same,glycan array binding signal (z-score),[27],-0.241
same,glycan array binding signal (z-score),Gal(b1-4)Gal,-0.264
same,glycan array binding signal (z-score),[28],-0.253
same,glycan array binding signal (z-score),[29],-0.239
same,glycan array binding signal (z-score),Gal(b1-4)Glc,-0.247
same,glycan array binding signal (z-score),Gal(b1-4)Glc6S,-0.243
same,glycan array binding signal (z-score),Gal(b1-4)GlcNAc,-0.243
same,glycan array binding signal (z-score),[30],-0.241
same,glycan array binding signal (z-score),Gal(b1-4)GlcNAc(b1-2)Man,-0.11
same,glycan array binding signal (z-score),[31],-0.25
